Out of some 44,000 compounds screened, about 340 (0.77%) were called active. Inconclusive results (about 5%) are left out. The call rests on the fitted dose curve; in most records, active means well fitted inhibition curve with a large enough effect; inconclusive means small, poorly fitted or top-dose-only effect; inactive means flat fitted curve, though single readings scatter. The list shows a part of the results.
Test: Acumen qHTS Assay for Inhibitors of the mTORC1 Signaling Pathway in MEF (Tsc2-/-, p53-/-) Cells: Sytravon;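 further: plate controls were DMSO for no effect and rapamycin for full effect; nearly all actives have a fitted effect of over 50% in size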
Conditions: phospho-rpS6 immunofluorescence/PI, 24 h; series mostly up to 38.3 µM; activity change, negative = inhibition: at the top concentration
Text: NIH Molecular Libraries Probe Production Centers Network [MLPCN] NIH Chemical Genomics Center [NCGC] MLPCN Grant: NS059428-01 Assay Submitter (PI): Blenis, John; Hoffman, Greg; Harvard University NCGC Assay Overview: The mammalian target of rapamycin (mTOR) is an intracellular serine/threonine kinase Aberrant regulation of mTOR signaling plays a causative role in a number of human diseases, including cancer, benign tumors such as lymphangioleiomyomatosis (LAM) and Tuberous Sclerosis Complex (TSC), and metabolic diseases such as diabetes and obesity. This project aims to identify inhibitors of ribosomal protein S6 (rpS6) phosphorylation. The phosphorylation of rpS6 is a key event downstream of mTOR activation. The assay uses a phospho-specific antibody of phospho-rpS6 to detect inhibitors of mTOR activation. Mutations in the Tsc1 and Tsc2 genes are the underlying genetic lesions responsible for TSC, causing constitutive activation of the mTORC1 pathway and leading to profound effects on cell metabolism. Aberrant metabolism in cancer has recently received significant attention as a target to develop therapeutic agents in the treatment of cancer.1 As Tsc2-/- cells have lost the ability to respond to energy and growth factor deprivation, these cells are unable to properly down regulate cellular biosynthetic processes in response to metabolic stress, and are thus extremely sensitive to glucose deprivation-induced death.2 A central goal of this project is to explore the unique cell survival and metabolic properties of cells with Tsc1 or Tsc2 by screening for compounds that selectively target the Tsc2-/- MEFs by screening both Tsc2-/- and WT MEF cell lines. We hope to better understand these aspects of TSC physiology in order to exploit them for therapeutic benefit.
NCGC Acumen Assay Protocol Summary: For quantitative high throughput analysis of mTORC1 signaling, we developed a cell-based assay for immuno-fluorescence based detection of rpS6 phosphorylation on the Acumen Explorer that will be used a platform for the primary small molecule screen. Mouse embryonic fibroblasts (MEFs) are cultured in 1536-well plates using DMEM + 10% FBS. Twenty-four hrs after plating, test compounds (solubilized in DMSO) are delivered and incubated with the cells for 24 hrs at 37 degree Celsius. Following the incubation, media with compound is aspirated and the cells are fixed in 4% paraformaldehyde (PFA) containing PBS + 0.2% TX-100. Next, PFA is aspirated, cells are washed two times with PBS plus 0.2% TX-100 and the cells are blocked for 1 hr at room temperature (blocking buffer: LiCOR Blocking Buffer plus 0.2% TX-100). […] Cells are washed two times with PBS plus 0.2% TX-100, and stained with 10 uM propidium iodide (PI) for 20-25 minutes for cell number measurement (1:500 dilution of Hoescht staining is also added for IN Cell imaging). The plates are scanned on the Acumen Explorer laser scanning instrument (TTP Labtech) using the 488nm laser for simultaneous excitation of the Alexa-488 and PI. […] The normalized phospho-S6 staining is calculated as the ratio of the integrated Alexa 488 intensity divided by the integrated PI intensity for the single concentration rapamycin control (7.5 nM) and DMSO columns. […] Inhibition of the pathway is defined based on the normalized phospho-S6 intensity in rapamycin treated cells. Active cells are defined as those with a normalized phospho-S6 staining above this threshold, and each treatment is reported as the % positive cells in the well, where thresholds are defined by selecting wells with the highest and lowest signal and differentiating between the % non-active and % active populations. In addition to the pathway specific phospho-S6 endpoint, the number of PI stained cells from the Acumen is recorded as a measure of cell viability. The primary screen was performed with a MEF cell line in a defined genetic background, Tsc2-/-, p53-/- cell line stably transfected with an empty vector control (Tsc2-/- MEF).

SMILES | activity change, negative = inhibition
O=c1c(N2CCCCC2)csc2ccc(F)cc12 | inactive: 3.74%
CCc1nc2ccc(C(=O)NCc3cccc(Br)c3)cc2nc1CC | inactive: 0.673%
CCc1ccc(S(=O)(=O)Nc2cc3c(cc2N2CCOCC2)n(C)c(=O)c(=O)n3C)cc1 | inactive: -4.08%
CCOc1ccc(NC(=O)C(=O)NCCc2ccccc2)cc1 | inactive: -11.3%
O=C(Cn1c(=O)n(CCCS(=O)(=O)C2CCCCC2)c(=O)c2ccccc21)Nc1ccc(F)c(Cl)c1 | inactive: 0.346%
COc1ccc(C)cc1NC(=O)N1CCN(c2nnc(C)c3c(C)n(-c4ccccc4)nc23)CC1 | inactive: -2.03%
O=C(c1cnc(N2CCCCC2)c2ccccc12)N1CCN(c2cccc(Cl)c2)CC1 | inactive: -4%
COCCCNC(=O)c1nn(-c2ccc(C)cc2)c(=O)n(C)c1=O | inactive: 3.13%
CCOc1ccc(NC(=O)CC2C(=O)N(c3ccccc3)C(=O)N2Cc2cccc(OC)c2)cc1 (centres undefined) | inactive: 0.0831%
CCOc1ccccc1NC(=O)CCc1c(C)nc2c3cccnc3nn2c1C | inactive: -0.542%
CCc1cccc(NC(=O)Cn2ncc3c([nH]c4ccc(C)cc43)c2=O)c1 | inactive: -3.2%
CCCCNc1sc(S(=O)(=O)CCC)nc1S(=O)(=O)c1ccc(C)cc1 | inactive: -5.88%
Cc1ccc(CN2C(=O)c3ccccc3Sc3ccc(C(=O)NC4CCCC4)cc32)cc1 | inactive: 14%
CCNC(=O)c1c2c(nc3ccccc13)C(=O)N(C1CCCCC1)C2 | inactive: 0.74%
O=C(Cn1c(SCc2ccccc2F)nc2cccnc21)Nc1ccc(F)c(Cl)c1 | inactive: 1.12%
O=C(NC1CC(=O)N(c2ccccc2)C1)c1ccco1 (centres undefined) | inactive: 0.0183%
Cc1ccc(C(=O)N2CCc3cc(CNC(=O)CCc4ccccc4)ccc32)cc1 | inactive: -6.64%
COc1cccc(C(=O)NCCc2csc(-c3cccc(F)c3)n2)c1OC | inactive: 0%
O=C(Nc1ccc(F)cc1)Nc1ccc2snnc2c1 | inactive: -6.07%
CCc1cccc(NC(=O)CN(c2ccc(C)cc2)S(=O)(=O)c2cccs2)c1 | inactive: -5.54%
CCC1CCCCN1CCCNC(=O)c1[nH]c2ccccc2c1Sc1ccc(Cl)cc1 (centres undefined) | inactive: -14.9%
CCOc1ccc(C(c2c(O)cc(C)n(CCOC)c2=O)N2CCN(c3ccccc3)CC2)cc1 (centres undefined) | inactive: 3.46%
Cc1c2cnn(CC(=O)N3CCCCC3)c(=O)c2c(C)n1Cc1ccc(F)cc1 | inactive: -0.576%
COc1cccc(CNC(=O)C(CC(C)C)NS(=O)(=O)c2ccc3c(c2)oc(=O)n3C)c1 (centres undefined) | inactive: 2.21%
Cc1ccc(Cl)cc1NS(=O)(=O)c1ccc2oc(=O)c3ncn(C)c3c2c1 | inactive: 3.04%

SMILES | activity change, negative = inhibition
Cc1ccc2c(c1)C(=O)OC(C(=O)Nc1ncc(Cc3ccc(C(C)C)cc3)s1)C2 (centres undefined) | inactive: 6.2%
COc1ccc(-c2noc(N3CCC(C(=O)Nc4ccc(F)cc4Cl)CC3)n2)cc1 | inactive: 1.1%
CCN(C(=O)CCS(=O)(=O)c1cc2[nH]c(=O)c(=O)[nH]c2cc1C)c1ccccc1 | inactive: -2.08%
Cc1ccc2sc(N3CCN(C(=O)CCS(=O)(=O)c4ccc(Cl)cc4)CC3)nc2c1C | inactive: 4.45%
O=C(NCCc1ccc(F)cc1)C(=O)NCC(c1cccs1)S(=O)(=O)c1ccc(F)cc1 (centres undefined) | inactive: -17.2%
Cc1ccc(-c2cn3nc(N4CCCC(C(=O)Nc5ccc(F)cc5)C4)sc3n2)cc1 (centres undefined) | inactive: 0.0361%
Cc1ccc(N(CC(=O)N2CCN(c3ccc(Cl)cc3)CC2)S(=O)(=O)c2c(C)nn(C)c2C)cc1 | inactive: -2.42%
CCC(Sc1nc2ncccc2[nH]1)C(=O)Nc1cccc(OC)c1 (centres undefined) | inactive: -5.3%
CCCN(CCC)C(=O)Cn1c(=O)n(-c2cccc(OC)c2)c(=O)c2c(C)c(C(=O)N(C)C)sc21 | inactive: 0.262%
Cc1ccc(NC(=O)C(Cc2ccccc2)n2cccc2)cc1 (centres undefined) | inactive: -18.3%
COc1ccccc1CNC(=O)C1CCCN(C(=O)c2cnn(-c3ccc(F)cc3)c2-n2cccc2)C1 (centres undefined) | inactive: -1.19%
COc1ccccc1OCCCSc1nc(-c2ccc(C(C)(C)C)cc2)nc2cc(=O)[nH]n12 | inactive: -7.95%
COCCCn1c(=O)c2sccc2n2c(CCCC(=O)Nc3cc(C)cc(C)c3)nnc12 | inactive: -11.2%
COc1ccc(CNC(=O)Cn2ncc3c4ccccc4n(Cc4cccc(Cl)c4)c3c2=O)cc1 | inactive: -0.565%
CN1CCc2c(sc3c2C(=O)NC(c2ccc(OC(=O)c4ccccc4)cc2)N3)C1 (centres undefined) | inactive: 1.1%
COc1ccc(OC)c(NCc2cccn2-c2nnc(N3CCCCC3)s2)c1 | inactive: -0.758%
Cc1ccc(C)c(S(=O)(=O)c2cn(C)c3cc(N4CCCCC4C)c(F)cc3c2=O)c1 (centres undefined) | inactive: -20.9%
COc1ccc(C)cc1NC(=O)c1ccc2c(=O)n3c(nc2c1)CCCCC3 | inactive: -0.717%
COc1ccc(C(=O)NCCn2cc(SCC(=O)Nc3ccc(C)cc3)c3ccccc32)cc1 | inactive: -15.2%
Cc1ccc(CNC(=O)NCc2noc3ccc(C)cc23)cc1 | inactive: 2.28%
Cc1cccc(-c2nc3c4ccccc4nc(N4CCN(c5ccccc5F)CC4)n3n2)c1 | inactive: -1.5%
Cn1c(=O)c2c(-c3ccc(Cl)cc3)n(Cc3ccc(Cl)cc3)cc2n(C)c1=O | inactive: -3.12%
COC(=O)c1cc2sc(Cl)cc2n1Cc1c(C)cc(C)cc1C | inactive: -11.2%
CCn1c2ccccc2c2cc(NC(=O)COc3ccc(C)cc3C)ccc21 | inactive: -2.08%
